{
  "source": "ChEMBL document CHEMBL1157539",
  "about": "“Thousands of chemical starting points for antimalarial lead identification” (Nature, 2010)",
  "note": "The full ranking holds about 13,000 compounds; the median of “IFI” is about 4, and the highest 2% start at about 17. This is one part of the list.",
  "data": [
    {"experiment": "GSK_TCMDC: Inhibition Frequency Index (IFI). The number of non-kinase HTS assays where a compound showed > 50 % inhibition, expressed as a percentage of the number of such assays in which the compound was tested (-0 is zero)", "type": "functional", "units": {"IFI": "%"}, "values": [
      {"smiles": "O=C(Cc1c[nH]cn1)Nc1cccc(-c2ccc(-c3nc4cc(F)ccc4[nH]3)s2)c1", "IFI": 3.74},
      {"smiles": "CC1CCCCN1Cc1cccc(-c2c[nH]c3nc(NC4CCCC4)ncc23)c1", "note": "(stereo not given)", "IFI": 1.72},
      {"smiles": "Cc1[nH]c(C)c(C(F)(F)F)c(=O)c1-c1ccc(Oc2ccc(OC(F)(F)F)cc2)cc1", "IFI": 0},
      {"smiles": "Cc1ccc(NC(=O)c2ccc(N3CCC(c4ccccc4C)CC3)nc2)cc1", "IFI": 4.35},
      {"smiles": "COc1cc2c(cc1NS(=O)(=O)c1ccc(OCc3ccc(Br)cc3)cc1)CCN(C1CCC1)CC2", "IFI": 11.3},
      {"smiles": "C(=N\\Nc1nccc2sc(-c3ccccc3)cc12)/c1cccnc1", "IFI": 2.92},
      {"smiles": "O=[N+]([O-])c1ccc(CNCCCCCCNCc2ccc([N+](=O)[O-])c3ccccc23)c2ccccc12", "IFI": 10.3},
      {"smiles": "Cc1cc(C(=O)Nc2ccc(-c3nc4ccccc4[nH]3)cc2)ccc1[N+](=O)[O-]", "IFI": 2.11},
      {"smiles": "CC(C)N(CCOc1ccc2c(c1)N(C(=O)Nc1cc(Br)cc(C(F)(F)F)c1)CC2)C(C)C", "IFI": 3.6},
      {"smiles": "COc1cc2nccc(Nc3ccc4c(cnn4Cc4cccc(F)c4)c3)c2cc1OC", "IFI": 5.83},
      {"smiles": "CN(C)CCCOc1ccc(CN2CC[C@H](NC(=O)c3ccc(Cl)c(Cl)c3)C2)cc1Cl", "IFI": 4.17},
      {"smiles": "CC(C)c1ncc(-c2ccncc2)c(C2CCC(CNC(=O)c3ccncc3)CC2)n1", "note": "(stereo not given)", "IFI": -0},
      {"smiles": "COc1ccc(-c2ccc(NC(=O)c3cccc(C#N)c3)cc2)cc1CN1CCC(O)CC1", "IFI": 0.97},
      {"smiles": "CCCCCc1cc(OC(C)=O)c2c(c1)OC(C)(C)C=C2C1=CCN(Cc2ccccc2)CC1", "IFI": 5.76},
      {"smiles": "Fc1ccc(C=NNc2nc3ccccc3[nH]2)cc1", "IFI": 1.42},
      {"smiles": "COc1cc(N)c(Cl)cc1C(=O)NC1CCC(NCC2CCCCC2)CC1", "note": "(stereo not given)", "IFI": 0.96},
      {"smiles": "CC(C)CCN(Cc1cncn1Cc1ccccc1F)C(=O)c1cncc(-c2ccccc2)c1", "IFI": 3.7},
      {"smiles": "N[C@@H](CCNCc1ccc(-c2cccnc2)cc1)Cc1ccc(F)c(F)c1", "IFI": 7.69},
      {"smiles": "O=C(Nc1cccc(CN2CCN(C(=O)c3ccccc3)CC2)c1)c1cccs1", "IFI": 5.38},
      {"smiles": "Cc1cccc2nc(-c3cccc(-c4cccc(CN5CCC(CO)CC5)c4)c3)[nH]c12", "IFI": 2},
      {"smiles": "Cc1cccc2nc(-c3ccc(-c4ccc(NC(=O)Nc5ccc(F)c(F)c5F)cc4)cc3)[nH]c12", "IFI": 2.94},
      {"smiles": "Cc1cc2c(cc1C(F)(F)F)N(C(=O)Nc1ccc(C(=O)NC3CCN(Cc4ccccc4)C3)cc1)CC2", "note": "(stereo not given)", "IFI": 5.22},
      {"smiles": "Cc1cc2ncn(-c3nccc(NCc4ccc(F)c(C)c4)n3)c2cc1C", "IFI": 1.56},
      {"smiles": "Cc1nc(NCCc2c[nH]cn2)cc(NCc2ccccc2)n1", "IFI": -0},
      {"smiles": "Cc1cccc2nc(-c3cccc(-c4cccc(CNCCc5ccncc5)c4)c3)[nH]c12", "IFI": 6.06},
      {"smiles": "CC(C)CCCC(C)(C)NC[C@@H](O)[C@H](Cc1ccccc1)NC(=O)c1cc(NC(C)C)cc(N2CCCCS2(=O)=O)c1F", "IFI": 5.93},
      {"smiles": "Cc1cccc(-c2ccc(NC(=O)C3CCN(Cc4cccc(O)c4)CC3)cc2)c1", "IFI": 15.9},
      {"smiles": "CN(C)c1ccc(CN2CCC(CNC(=O)c3cc(-c4ccccc4F)cs3)C2)cc1", "note": "(stereo not given)", "IFI": 6.12},
      {"smiles": "COc1ccc2nc(SC(C)C(=O)c3c[nH]c4ccccc34)[nH]c2c1", "note": "(stereo not given)", "IFI": 6},
      {"smiles": "CC1CCc2sc(-c3nnc(SC(C)C(=O)NC4CC4)o3)cc2C1", "note": "(stereo not given)", "IFI": 0},
      {"smiles": "Cc1cccc2nc(-c3cccc(-c4cccc(NC(=O)NC5CC5c5ccccc5)c4)c3)[nH]c12", "note": "(stereo not given)", "IFI": 2.06},
      {"smiles": "CCCCNS(=O)(=O)c1ccc(NC(=O)c2cc([N+](=O)[O-])ccc2Cl)cc1", "IFI": 5.17},
      {"smiles": "Cc1cccc2nc(-c3cccc(-c4cccc(NC(=O)c5ccc(=O)[nH]n5)c4)c3)[nH]c12", "IFI": 1.79},
      {"smiles": "COCCn1ccc2c3c(N)nc(N)nc3ccc21", "IFI": 4.2},
      {"smiles": "CC(C)(C)CNc1noc(-c2sccc2Br)n1", "IFI": 7.58},
      {"smiles": "CCCCc1ccc(S(=O)(=O)Nc2ccc3c(c2)CCN(Cc2c[nH]c4cnccc24)CC3)cc1", "IFI": 19.4},
      {"smiles": "Cc1ccc(F)cc1S(=O)(=O)N1CCCCC(c2ccc(C(F)(F)F)cc2)=N1", "IFI": 1.46},
      {"smiles": "O=C(Nc1cccc(-c2ccc(-c3nc4ccccc4[nH]3)cc2)c1)c1cccnc1", "IFI": 3.7},
      {"smiles": "Cc1[nH]c(-c2ccc(F)cc2)cc1C(=O)NC1CCN(Cc2ccccc2)CC1", "IFI": 0.93},
      {"smiles": "Cc1nc(O)c2c(ccc3ccc(CNc4ccc(C(=O)N[C@@H](CCC(=O)O)C(=O)O)cc4)cc32)n1", "IFI": 1.44},
      {"smiles": "CNC(=O)Cc1ccc(C(=O)Nc2cccc(-c3csc(-c4nc5ccccc5[nH]4)c3)c2)cc1", "IFI": 2.83},
      {"smiles": "Cc1nn(-c2ccccc2)c2nc(-c3ccccc3)cc(C(=O)N3CCOCC3)c12", "IFI": 3.31},
      {"smiles": "O=S(=O)(NC1CCN(c2ccnc3cc(Cl)ccc23)C1)c1cccc(F)c1", "note": "(stereo not given)", "IFI": 1.54},
      {"smiles": "Cc1cc(NCCC(=O)Nc2ccccc2)nc(NCCc2cccs2)n1", "IFI": 4.88},
      {"smiles": "CN(CCN)Cc1cccc(-c2cccc(-c3nc4cc(C(F)(F)F)ccc4[nH]3)c2)c1", "IFI": 3.96}
    ]}
  ]
}
